Laboratory results as given in the RNAGym collection of RNA variant scans (doi:10.1073/pnas.2313332121).
This sample is rich in variants without activity.

B1: TPR 5TU (parent)
chain: GGAUCUUCUCGAUCUAACAAAAAAGACAAAUCUGCCACAAAGCUUGAGAGCAUCUUCGGAUGCAGAGGCGGCAGCCUUCGGUGGCGCGAUAGCGCCAACGUUCUCAACUAUGACACGCAAAACGCGUGCUCCGUUGAAUGGAGUUUAUCAUG

Variants of: B1
Experiment: polymerase ribozyme fitness, log enrichment relative to wild type (log ratio); higher = more active; in vitro selection for triplet polymerase activity
In short: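 The heterodimeric triplet polymerase ribozyme's subunits were each mutagenized into PCR-built libraries and transcribed. Every library was selected once, in triplicate, by annealing with a biotinylated primer, the partner subunit and triplets, incubating frozen at −7 °C, gel-excising extended constructs, capturing on streptavidin beads and running RT-PCR. Input and output libraries were Illumina-sequenced, with genotypes kept only at ≥10 input reads and ≥1 read per output. Fitness, from inverse-variance-weighted replicate averages, is the base-2 logarithm of genotype enrichment over wild-type enrichment.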
In the case of C87A G92C U101C C114G G133U, the “polymerase ribozyme fitness (log ratio)” value is reported as no more than -4.2.
With C85U G100A C129U the “polymerase ribozyme fitness (log ratio)” value was no more than -4.2.
For C85G U134A, the “polymerase ribozyme fitness (log ratio)” value was -3.86.
In the case of G86U A115C G143U, the “polymerase ribozyme fitness (log ratio)” value is reported as no more than -4.2.
In the case of C87U G124A, the “polymerase ribozyme fitness (log ratio)” value is reported as -0.0826.
For C87A C132U, the “polymerase ribozyme fitness (log ratio)” value was no more than -4.2.
In the case of C87U U90C, the “polymerase ribozyme fitness (log ratio)” value is reported as -3.33.
For C87U A89G C103U A115C C123U G143U, the “polymerase ribozyme fitness (log ratio)” value was no more than -4.2.
With C85G G86C G143U the “polymerase ribozyme fitness (log ratio)” value was no more than -4.2.
With C87G G141C the “polymerase ribozyme fitness (log ratio)” value was -3.99.
For C85G U102C G141U, the “polymerase ribozyme fitness (log ratio)” value was -3.43.
In the case of C87U G88C A89G G124C G126A, the “polymerase ribozyme fitness (log ratio)” value is reported as no more than -4.2.
For G88A G124C, the “polymerase ribozyme fitness (log ratio)” value was no more than -4.2.
In the case of C87U A137C, the “polymerase ribozyme fitness (log ratio)” value is reported as -3.99.
For C85U C129U, the “polymerase ribozyme fitness (log ratio)” value was -0.359.
For C85G G136U, the “polymerase ribozyme fitness (log ratio)” value was no more than -4.2.
With C87A U127G the “polymerase ribozyme fitness (log ratio)” value was no more than -4.2.
In the case of G86C U101G G124U G152A, the “polymerase ribozyme fitness (log ratio)” value is reported as -4.15.
In the case of G88C U102G, the “polymerase ribozyme fitness (log ratio)” value is reported as no more than -4.2.
With C87U C93G G100A the “polymerase ribozyme fitness (log ratio)” value was no more than -4.2.
In the case of C87A C93U, the “polymerase ribozyme fitness (log ratio)” value is reported as no more than -4.2.
For C87G A107U, the “polymerase ribozyme fitness (log ratio)” value was no more than -4.2.
In the case of C87U G136C, the “polymerase ribozyme fitness (log ratio)” value is reported as -3.65.
In the case of C85U C95G G100C, the “polymerase ribozyme fitness (log ratio)” value is reported as no more than -4.2.
With G88C C95U C108A U146A C149A the “polymerase ribozyme fitness (log ratio)” value was no more than -4.2.
In the case of C87U A122U, the “polymerase ribozyme fitness (log ratio)” value is reported as -0.5.
With C85U A150U G152A the “polymerase ribozyme fitness (log ratio)” value was -0.481.
With G86U U90C A110G the “polymerase ribozyme fitness (log ratio)” value was no more than -4.2.
For C87A A91U U145G, the “polymerase ribozyme fitness (log ratio)” value was no more than -4.2.
For G86A G100A, the “polymerase ribozyme fitness (log ratio)” value was -3.89.
With C85G G88A the “polymerase ribozyme fitness (log ratio)” value was -4.01.
In the case of C85U C96A C116G, the “polymerase ribozyme fitness (log ratio)” value is reported as -0.604.
In the case of G88C A137U G143A, the “polymerase ribozyme fitness (log ratio)” value is reported as no more than -4.2.
For G86A C123U G133U, the “polymerase ribozyme fitness (log ratio)” value was no more than -4.2.
In the case of C87A A121U C125A, the “polymerase ribozyme fitness (log ratio)” value is reported as no more than -4.2.
With C87A G124U U144C the “polymerase ribozyme fitness (log ratio)” value was no more than -4.2.
For C87U C99G C131U C132G U144G, the “polymerase ribozyme fitness (log ratio)” value was no more than -4.2.
In the case of G88A A98U A106C, the “polymerase ribozyme fitness (log ratio)” value is reported as no more than -4.2.
In the case of C87U A106G, the “polymerase ribozyme fitness (log ratio)” value is reported as -0.549.
For C87U A91C, the “polymerase ribozyme fitness (log ratio)” value was no more than -4.2.
With C85G C116A the “polymerase ribozyme fitness (log ratio)” value was -0.515.
In the case of C85G C116U, the “polymerase ribozyme fitness (log ratio)” value is reported as -1.66.
In the case of C87A A119U A147C, the “polymerase ribozyme fitness (log ratio)” value is reported as -4.05.
With C87G C93A C105U A107G A137G A142U the “polymerase ribozyme fitness (log ratio)” value was no more than -4.2.
In the case of C87G A110C U146G C149A, the “polymerase ribozyme fitness (log ratio)” value is reported as no more than -4.2.
In the case of C87A U102C U127G U139A, the “polymerase ribozyme fitness (log ratio)” value is reported as no more than -4.2.
In the case of C85U C95U, the “polymerase ribozyme fitness (log ratio)” value is reported as -1.72.
In the case of C87U A150C, the “polymerase ribozyme fitness (log ratio)” value is reported as -3.7.
In the case of C87A U144C, the “polymerase ribozyme fitness (log ratio)” value is reported as no more than -4.2.
With C87A U144A the “polymerase ribozyme fitness (log ratio)” value was no more than -4.2.
In the case of C87A U144G, the “polymerase ribozyme fitness (log ratio)” value is reported as -3.92.
For G86A U101G, the “polymerase ribozyme fitness (log ratio)” value was -0.828.
With C87U G100U A106U C149G the “polymerase ribozyme fitness (log ratio)” value was no more than -4.2.
With C87A A97U the “polymerase ribozyme fitness (log ratio)” value was no more than -4.2.
With C87A A97C the “polymerase ribozyme fitness (log ratio)” value was no more than -4.2.
With G86U G133A the “polymerase ribozyme fitness (log ratio)” value was no more than -4.2.
In the case of C87U C108G U145G, the “polymerase ribozyme fitness (log ratio)” value is reported as no more than -4.2.
With C85U A89C the “polymerase ribozyme fitness (log ratio)” value was -1.13.
For G88C C95G, the “polymerase ribozyme fitness (log ratio)” value was no more than -4.2.
In the case of G88C C95U, the “polymerase ribozyme fitness (log ratio)” value is reported as no more than -4.2.
With C85U G124U the “polymerase ribozyme fitness (log ratio)” value was -0.801.
For C87U U127A C132G, the “polymerase ribozyme fitness (log ratio)” value was no more than -4.2.
In the case of C85U C116U G141A, the “polymerase ribozyme fitness (log ratio)” value is reported as -2.95.
With C87A G128C the “polymerase ribozyme fitness (log ratio)” value was no more than -4.2.
For G88C G140A, the “polymerase ribozyme fitness (log ratio)” value was no more than -4.2.
In the case of C85G U101G G128U, the “polymerase ribozyme fitness (log ratio)” value is reported as -4.03.
For C87A G117C A122C G133U, the “polymerase ribozyme fitness (log ratio)” value was no more than -4.2.
For G86A U145G U148A, the “polymerase ribozyme fitness (log ratio)” value was no more than -4.2.
With G88C A89C C95U the “polymerase ribozyme fitness (log ratio)” value was no more than -4.2.
With C85U C95A U102A G136U A142G the “polymerase ribozyme fitness (log ratio)” value was no more than -4.2.
In the case of C85U A150G, the “polymerase ribozyme fitness (log ratio)” value is reported as -1.76.
In the case of C87U U104G, the “polymerase ribozyme fitness (log ratio)” value is reported as -0.825.
In the case of C85U A142C, the “polymerase ribozyme fitness (log ratio)” value is reported as -1.12.
For C85U A142G, the “polymerase ribozyme fitness (log ratio)” value was -1.38.
For C87U A122C G133U, the “polymerase ribozyme fitness (log ratio)” value was no more than -4.2.
With G88A A89G the “polymerase ribozyme fitness (log ratio)” value was -3.67.
In the case of G86U U90G, the “polymerase ribozyme fitness (log ratio)” value is reported as no more than -4.2.
With G86C U101A U104G A107C G112C the “polymerase ribozyme fitness (log ratio)” value was no more than -4.2.
In the case of C85U A107C U144C, the “polymerase ribozyme fitness (log ratio)” value is reported as no more than -4.2.
In the case of G88C A97U, the “polymerase ribozyme fitness (log ratio)” value is reported as no more than -4.2.
For C85U C87U A137U, the “polymerase ribozyme fitness (log ratio)” value was no more than -4.2.
For C85G C118A G126A, the “polymerase ribozyme fitness (log ratio)” value was no more than -4.2.
With C87U U90C G141C the “polymerase ribozyme fitness (log ratio)” value was no more than -4.2.
In the case of G88A A106U, the “polymerase ribozyme fitness (log ratio)” value is reported as no more than -4.2.
